{
  "source": "PubChem BioAssay (Tox21)",
  "key": {"[1]": {"molecular_target": "Peroxisome proliferator-activated receptor gamma (Homo sapiens) (UniProt P37231)", "sequence (P37231 whole entry, looked up)": "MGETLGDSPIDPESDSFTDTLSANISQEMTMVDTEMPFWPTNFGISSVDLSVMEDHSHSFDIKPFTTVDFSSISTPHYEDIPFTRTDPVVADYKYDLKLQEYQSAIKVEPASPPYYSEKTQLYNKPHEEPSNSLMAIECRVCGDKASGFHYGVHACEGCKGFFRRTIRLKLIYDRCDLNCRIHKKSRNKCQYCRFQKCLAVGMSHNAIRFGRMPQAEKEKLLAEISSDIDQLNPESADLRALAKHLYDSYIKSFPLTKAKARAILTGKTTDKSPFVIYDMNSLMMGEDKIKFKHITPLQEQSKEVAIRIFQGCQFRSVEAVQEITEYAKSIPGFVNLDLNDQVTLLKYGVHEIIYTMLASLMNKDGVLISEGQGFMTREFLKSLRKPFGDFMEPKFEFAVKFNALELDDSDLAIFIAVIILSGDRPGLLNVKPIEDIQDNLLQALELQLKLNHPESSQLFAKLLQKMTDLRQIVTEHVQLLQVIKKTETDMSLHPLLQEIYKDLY", "assay": "qHTS assay to identify small molecule antagonists of the peroxisome proliferator-activated receptor gamma (PPARg) signaling pathway (AID 743191); also: nearly all actives have a fitted effect of over 30% in size; also: potency is read from the fitted curve at half-maximal effect; as to ratio activity, negative = inhibition: % is scaled to controls: 0 for no effect and ±100 for the full control effect", "conditions": "HEK293H PPARg-UAS-bla, beta-lactamase ratio, antagonist, 17 h; ratio activity, negative = inhibition: at 62.6 µM (top of the series) unless noted", "in_short": "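Beta-lactamase reporter under UAS control in HEK293H PPARg-bla cells; compound treatment 17 h at 37C. Read-out: fluorescence intensity after 1 h room-temperature incubation with LiveBLAzer B/G FRET substrate.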"}, "[2]": {"assay": "qHTS assay for small molecule agonists of the antioxidant response element (ARE) signaling pathway (AID 743202; active = well fitted activation curve with a large enough effect in the signal ratio in the repeat runs, not every such curve was filed as active; inconclusive = weak or mixed curves, or effect the other way; inactive = no such curve, though single readings can be large or run the other way; the % refers to the signal ratio; also: potency is read from the fitted curve at half-maximal effect)", "conditions": "HepG2 ARE-bla reporter, beta-lactamase FRET, 16 h; activation: at 73.3 µM (top of the series) unless noted", "in_short": "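Beta-lactamase reporter activity, read as fluorescence intensity, reflects ARE/Nrf2 pathway induction in HepG2 cells after 16 h compound exposure at 37 C; substrate loading was 2 h at room temperature.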"}, "[3]": {"molecular_target": "Bile acid receptor (Homo sapiens) (UniProt Q96RI1)", "sequence (Q96RI1 whole entry, looked up)": "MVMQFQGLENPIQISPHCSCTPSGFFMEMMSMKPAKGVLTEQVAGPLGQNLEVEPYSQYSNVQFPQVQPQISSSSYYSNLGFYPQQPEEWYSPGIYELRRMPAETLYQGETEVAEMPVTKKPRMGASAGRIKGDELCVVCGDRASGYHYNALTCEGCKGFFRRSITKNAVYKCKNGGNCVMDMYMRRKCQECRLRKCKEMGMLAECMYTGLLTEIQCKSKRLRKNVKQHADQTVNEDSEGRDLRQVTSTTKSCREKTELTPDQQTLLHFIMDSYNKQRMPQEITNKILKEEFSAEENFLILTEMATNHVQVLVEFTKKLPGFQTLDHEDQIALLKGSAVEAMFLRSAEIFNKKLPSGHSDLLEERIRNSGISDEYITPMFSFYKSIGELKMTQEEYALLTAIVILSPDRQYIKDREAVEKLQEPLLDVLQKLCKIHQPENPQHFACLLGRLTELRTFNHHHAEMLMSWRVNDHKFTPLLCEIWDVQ", "assay": "qHTS assay to identify small molecule antagonists of the farnesoid-X-receptor (FXR) signaling pathway (AID 743217; active = well fitted inhibition curve with a large enough effect in the signal ratio in the repeat runs, not every such curve was filed as active; inconclusive = weak or mixed curves, or effect the other way; inactive = no such curve, though single readings can be large or run the other way; the % refers to the signal ratio; also: % is scaled to controls: 0 for no effect and ±100 for the full control effect)", "conditions": "HEK293T FXR-UAS-bla, beta-lactamase ratio, CDCA-stimulated, 16 h; activity change, negative = inhibition: at 62.6 µM (top of the series) unless noted", "in_short": "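FRET fluorescence after 2 h room-temperature LiveBLAzer loading gives the readout. Prior step: FXR-bla HEK 293T cells, seeded and incubated 5 h, received test compounds plus 50 uM final CDCA for 16 h at 37 °C.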"}, "[4]": {"molecular_target": "Vitamin D3 receptor (Homo sapiens) (UniProt P11473)", "sequence (P11473 whole entry, looked up)": "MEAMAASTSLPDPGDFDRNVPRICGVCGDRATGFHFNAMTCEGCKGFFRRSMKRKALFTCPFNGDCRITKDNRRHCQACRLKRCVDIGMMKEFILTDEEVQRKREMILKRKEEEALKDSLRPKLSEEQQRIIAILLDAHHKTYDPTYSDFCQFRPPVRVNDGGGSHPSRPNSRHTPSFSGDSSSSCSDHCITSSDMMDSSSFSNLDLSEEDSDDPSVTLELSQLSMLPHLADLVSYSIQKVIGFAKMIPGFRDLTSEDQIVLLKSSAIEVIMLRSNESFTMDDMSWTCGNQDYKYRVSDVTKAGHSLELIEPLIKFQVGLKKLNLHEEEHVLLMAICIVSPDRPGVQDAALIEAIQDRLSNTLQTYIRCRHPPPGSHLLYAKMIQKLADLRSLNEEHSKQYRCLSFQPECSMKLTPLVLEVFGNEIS", "assay": "qHTS assay to identify small molecule antagonists of the vitamin D receptor (VDR) signaling pathway (AID 743223; active = well fitted inhibition curve with a large enough effect in the signal ratio in the repeat runs, not every such curve was filed as active; inconclusive = weak or mixed curves, or effect the other way; inactive = no such curve, though single readings can be large or run the other way; the % refers to the signal ratio; also: potency is read from the fitted curve at half-maximal effect; as to activity change, negative = inhibition: % is scaled to controls: 0 for no effect and ±100 for the full control effect)", "conditions": "VDR-UAS-bla HEK293T, beta-lactamase FRET ratio, 16 h", "in_short": "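VDR-bla cells were plated, incubated 4 h at 37C, then given compound and 1alpha,25-dihydroxyvitamin D3 (3 nM final). After 16 h at 37C, LiveBLAzer B/G FRET substrate was added for 2 h at room temperature and fluorescence read.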"}, "[5]": {"assay": "qHTS assay to identify small molecule antagonists of the farnesoid-X-receptor (FXR) signaling pathway - cell viability counter screen (AID 743221; active = well fitted cell-killing curve with a large enough effect in the repeat runs, not every such curve was filed as active; inconclusive = weak or mixed curves, or effect the other way; inactive = no such curve, though single readings can be large or run the other way; also: nearly all actives have a fitted effect of over 50% in size; also: potency is read from the fitted curve at half-maximal effect)", "conditions": "FXR-bla HEK293T viability, CellTiter-Glo luminescence, 16 h; activity change, negative = cytotoxicity: at 62.6 µM (top of the series) unless noted", "in_short": "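FXR-UAS-bla HEK 293T cells were treated with test compounds plus chenodeoxycholic acid (50 uM final) for 16 h at 37 C. Cell viability in the same wells was then read as CellTiter-Glo luminescence after 30 min at room temperature.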"}, "[6]": {"assay": "qHTS assay to identify small molecule agonists of the vitamin D receptor (VDR) signaling pathway - cell viability counter screen (AID 743224; active = well fitted cell-killing curve with a large enough effect in the repeat runs; inconclusive = weak or mixed curves, or effect the other way; inactive = no such curve, though single readings can be large or run the other way; also: nearly all actives have a fitted effect of over 50% in size; also: potency is read from the fitted curve at half-maximal effect)", "in_short": "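In parallel with the bla FRET readout, cytotoxicity toward VDR-bla cells after 16 h compound exposure was assessed by CellTiter-Glo, with luminescence recorded after a 30 min room-temperature incubation.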"}, "[7]": {"assay": "qHTS assay to identify small molecule agonists of the farnesoid-X-receptor (FXR) signaling pathway - cell viability counter screen (AID 743218; active = well fitted cell-killing curve with a large enough effect in the repeat runs; inconclusive = weak or mixed curves, or effect the other way; inactive = no such curve, though single readings can be large or run the other way; also: potency is read from the fitted curve at half-maximal effect; nearly all actives have a fitted effect of over 45% in size)", "conditions": "FXR-bla HEK293T viability, CellTiter-Glo luminescence, 16 h; viability change, negative = cytotoxic: at 62.6 µM (top of the series) unless noted", "in_short": "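Readout: CellTiter-Glo luminescence, 30 min RT, multiplexed after the FXR-bla FRET reading. HEK 293T FXR-UAS-bla cells received compound 5 h post-plating and were incubated 16 h at 37 C.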"}, "[8]": {"molecular_target": "Peroxisome proliferator-activated receptor delta (Homo sapiens) (UniProt Q03181)", "sequence (Q03181 whole entry, looked up)": "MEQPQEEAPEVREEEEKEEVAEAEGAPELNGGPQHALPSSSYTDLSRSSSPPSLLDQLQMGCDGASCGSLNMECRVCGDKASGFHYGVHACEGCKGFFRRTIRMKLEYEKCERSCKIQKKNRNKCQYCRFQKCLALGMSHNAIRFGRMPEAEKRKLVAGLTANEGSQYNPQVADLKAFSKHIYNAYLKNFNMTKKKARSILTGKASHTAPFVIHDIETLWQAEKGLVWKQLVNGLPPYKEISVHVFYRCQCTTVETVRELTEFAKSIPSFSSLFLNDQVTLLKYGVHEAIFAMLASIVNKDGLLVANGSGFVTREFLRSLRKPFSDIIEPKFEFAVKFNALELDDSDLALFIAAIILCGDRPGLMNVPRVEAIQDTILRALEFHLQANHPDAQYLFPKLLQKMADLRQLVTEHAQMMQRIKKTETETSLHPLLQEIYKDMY", "assay": "qHTS assay to identify small molecule antagonists of the peroxisome proliferator-activated receptor delta (PPARd) signaling pathway (AID 743215; active = well fitted inhibition curve with a large enough effect in the signal ratio in the repeat runs, not every such curve was filed as active; inconclusive = weak or mixed curves, or effect the other way; inactive = no such curve, though single readings can be large or run the other way; the % refers to the signal ratio; also: % is scaled to controls: 0 for no effect and ±100 for the full control effect)", "conditions": "HEK293H PPARd-UAS-bla, beta-lactamase FRET ratio, antagonist, 17 h; ratio activity, negative = inhibition: at 62 µM (top of the series) unless noted", "in_short": "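Fluorescence from cleaved LiveBLAzer B/G FRET substrate (2 h, room temperature) reports PPARd-driven beta-lactamase in HEK293H UAS-bla cells. Cells had been treated 17 h at 37 C with compound plus 300 nM final L165041.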"}, "[9]": {"assay": "qHTS assay to identify small molecule antagonists of the vitamin D receptor (VDR) signaling pathway - cell viability counter screen (AID 743225; active = well fitted cell-killing curve with a large enough effect in the repeat runs; inconclusive = weak or mixed curves, or effect the other way; inactive = no such curve, though single readings can be large or run the other way; also: nearly all actives have a fitted effect of over 50% in size; also: potency is read from the fitted curve at half-maximal effect)", "conditions": "VDR-bla HEK293T viability, CellTiter-Glo luminescence, 16 h; viability change, negative = cytotoxic: at 61 µM (top of the series) unless noted", "in_short": "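VDR-bla HEK 293T cells, 4 h pre-incubation at 37C, then compound plus 1-alpha,25-dihydroxyvitamin D3 (3 nM final) for 16 h. After the beta-lactamase FRET read, CellTiter-Glo was added to the same wells; luminescence after 30 min at room temperature.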"}, "[10]": {"assay": "qHTS assay for small molecule agonists of the antioxidant response element (ARE) signaling pathway - cell viability counter screen (AID 743203); also: % is scaled to controls: 0 for no effect and ±100 for the full control effect; nearly all actives have a fitted effect of over 55% in size", "in_short": "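Measured in the same wells as the beta-lactamase ARE reporter, this read-out is CellTiter-Glo luminescence from HepG2 ARE-bla cells given compounds for 16 hrs.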"}, "[11]": {"conditions": "activity change, negative = inhibition: at 61 µM (top of the series) unless noted"}},
  "note": "Several values for one entry are separate records, joined by “and”; a condition that tells them apart may be missing. Equal values may be shown once. The shares of active, inactive and inconclusive entries below differ from those in the screen. For some of these results: Where the call is inconclusive, the potency comes from a doubtful curve fit. Activity calls are given as the source filed them. Unless noted, calls follow the shape of the full dose curve. Tags tell the direction and shape of the fitted curve or compound fluorescence and quenching.",
  "data": [
    {"smiles": "CC(C)=C[C@@H]1[C@@H](C(=O)OCc2coc(Cc3ccccc3)c2)C1(C)C", "values": [
      {"measurement": "ratio activity, negative = inhibition", "setting": "[1]", "value": "inconclusive: 3.57%"},
      {"measurement": "Potency", "setting": "[2]", "value": "inconclusive: 37.6 µM [rising, partial curve, poor fit]"},
      {"measurement": "activity change, negative = inhibition", "setting": "[3]", "value": "inconclusive: -10.9% and inconclusive: -30%"},
      {"measurement": "Potency", "setting": "[4]; [11]", "value": "inactive"}
    ]},
    {"smiles": "O=C(Cl)CCl", "values": [
      {"measurement": "ratio activity, negative = inhibition", "setting": "[1]", "value": "inconclusive: -3.89% [at 81.1 µM]"},
      {"measurement": "Potency", "setting": "[2]", "value": "inconclusive: 27.4 µM"},
      {"measurement": "Potency", "setting": "[5]", "value": "inactive"},
      {"measurement": "activity change, negative = inhibition", "setting": "[4]; [11]", "value": "inconclusive: 27.8% [at 78.8 µM]"},
      {"measurement": "Potency", "setting": "[6]", "value": "inactive"}
    ]},
    {"smiles": "Oc1ccccc1Cl", "values": [
      {"measurement": "Potency", "setting": "[1]", "value": "inactive"},
      {"measurement": "Potency", "setting": "[2]", "value": "inactive"},
      {"measurement": "activity change, negative = inhibition", "setting": "[4]; [11]", "value": "inconclusive: 12%"},
      {"measurement": "activity change, negative = inhibition", "setting": "[4]; at 61 µM (top of the series)", "value": "inactive: -9.18%"}
    ]},
    {"smiles": "CC(C)=CC1C(C(=O)OCN2C(=O)C3=C(CCCC3)C2=O)C1(C)C", "note": "(centres undefined)", "values": [
      {"measurement": "Potency", "setting": "[1]", "value": "inconclusive: 24.5 µM and active: 11.9 µM"},
      {"measurement": "activation", "setting": "[2]", "value": "inconclusive: 20.3%"},
      {"measurement": "Potency", "setting": "[4]; [11]", "value": "inconclusive: 2.2 nM [cytotoxic, full curve] and inactive"},
      {"measurement": "Potency", "setting": "[6]", "value": "inconclusive: 61.6 µM [cytotoxic, partial curve, poor fit] and inactive"}
    ]},
    {"smiles": "CCN(CC)c1nc(C)cc(OP(=S)(OC)OC)n1", "values": [
      {"measurement": "ratio activity, negative = inhibition", "setting": "[1]", "value": "inconclusive: 19.9%"},
      {"measurement": "Potency", "setting": "[2]", "value": "inconclusive: 43.3 µM [rising, partial curve]"},
      {"measurement": "Potency", "setting": "[7]", "value": "inconclusive: 1.95 µM [rising, full curve, poor fit]"},
      {"measurement": "activity change, negative = inhibition", "setting": "[4]; [11]", "value": "inconclusive: 42%"}
    ]},
    {"smiles": "Cc1c([N+](=O)[O-])c(C)c([N+](=O)[O-])c(C(C)(C)C)c1[N+](=O)[O-]", "values": [
      {"measurement": "Potency", "setting": "[1]", "value": "inactive"},
      {"measurement": "Potency", "setting": "[2]", "value": "inactive"},
      {"measurement": "Potency", "setting": "[8]", "value": "inactive"},
      {"measurement": "Potency", "setting": "[7]", "value": "inconclusive: 38.9 µM [cytotoxic, partial curve]"},
      {"measurement": "Potency", "setting": "[5]", "value": "inconclusive: 49 µM [falling, partial curve, poor fit]"},
      {"measurement": "viability change, negative = cytotoxic", "setting": "[9]", "value": "inconclusive: -41.3% [cytotoxic]"}
    ]},
    {"smiles": "SCc1ccccc1", "values": [
      {"measurement": "Potency", "setting": "[1]", "value": "inconclusive: 40 µM [rising, partial curve, poor fit]"},
      {"measurement": "Potency", "setting": "[10]", "value": "inactive"},
      {"measurement": "Potency", "setting": "[3]", "value": "inactive"},
      {"measurement": "Potency", "setting": "[9]", "value": "inconclusive: 11.3 µM [cytotoxic, single point]"}
    ]},
    {"smiles": "CS(=O)(=O)c1cc(C(F)(F)F)ccc1C(=O)c1cnoc1C1CC1", "values": [
      {"measurement": "ratio activity, negative = inhibition", "setting": "[1]", "value": "inconclusive: -0.985%"},
      {"measurement": "Potency", "setting": "[2]", "value": "inactive"},
      {"measurement": "Potency", "setting": "[8]", "value": "inactive"}
    ]}
  ]
}
